This note sets out measurements from PubChem BioAssay AID360 (National Center for Advancing Translational Sciences (NCATS), 2006).

Among all 48,000 compounds or so, about 550 (1.1%) were called active. Inconclusive results (about 4%) are left out. No stated cut-off is given here; in the data, active means potency below about 15 µM; inconclusive means mostly about 16 µM to 33 µM; inactive means weaker than that. The list shows a part of the results.
Potency means the concentration at half of the fitted maximal effect.

In this assay the target is Lysosomal acid glucosylceramidase (Homo sapiens) (UniProt P04062). Put plainly: Glucocerebrosidase.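 Further: the screen sought inhibitors.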 To be noted: purified enzyme, resorufin glucoside fluorescence (screen aimed at inhibitors), 20 min. The essentials: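 Wild-type enzyme at 0.2 nM final in 50mM citric acid/KH2PO4, 10mM sodium taurocholate, 0.01% tween-20, pH 5.9, with resorufin beta-D-glucopyranoside at 30 uM final. Compounds titrated, 20 min at RT, red fluorescence read; AC50 from titration.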
UniProt P04062, sequence (P04062 whole entry, looked up): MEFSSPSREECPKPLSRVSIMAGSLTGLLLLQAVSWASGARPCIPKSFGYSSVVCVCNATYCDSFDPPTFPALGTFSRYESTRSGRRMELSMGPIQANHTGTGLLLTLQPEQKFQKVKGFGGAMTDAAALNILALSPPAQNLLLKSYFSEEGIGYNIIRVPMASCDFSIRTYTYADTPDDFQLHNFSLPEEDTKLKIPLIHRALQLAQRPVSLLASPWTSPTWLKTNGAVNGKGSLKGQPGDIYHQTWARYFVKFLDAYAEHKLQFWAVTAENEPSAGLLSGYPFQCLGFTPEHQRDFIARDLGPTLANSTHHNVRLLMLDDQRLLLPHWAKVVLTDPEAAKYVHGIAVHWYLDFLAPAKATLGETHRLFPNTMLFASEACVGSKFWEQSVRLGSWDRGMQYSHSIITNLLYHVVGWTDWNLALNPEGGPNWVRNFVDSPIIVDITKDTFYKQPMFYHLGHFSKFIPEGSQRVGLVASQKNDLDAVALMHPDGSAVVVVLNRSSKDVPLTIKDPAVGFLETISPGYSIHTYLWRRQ
Consider `O=c1cc(-c2cccc3ccccc23)[nH][nH]1`, for which the Potency was inactive: > 76.9 µM.
With `CCCCc1cc(=O)oc2cc(C)cc(OC(C)C(=O)O)c12` (stereo unspecified), the Potency is inactive: > 76.9 µM.
With `COCCn1c(=S)[nH]c2cc(C(=O)N3CCN(Cc4ccc5c(c4)OCO5)CC3)ccc2c1=O`, the Potency was inactive: > 76.9 µM.
With `COc1cc(CC(=O)Oc2ccc3c(c2)OCO3)cc(OC)c1OC` the figure was inactive: > 76.9 µM; with `COc1ccc(N=C2C(=O)Nc3ccccc32)cc1`, inactive: > 76.9 µM.
With `CC(C)c1nnc(NC(=O)CCC(=O)NCc2ccco2)s1` the figure was inactive: > 76.9 µM; with `CCN1CCCC1CNC(=O)c1ccc(CS(=O)(=O)c2ccccc2C)o1` (stereo unspecified), inactive: > 76.9 µM; with `C=CCn1c(SCC(=O)Nc2ccc(C(=O)OC(C)C)cc2)nnc1-c1cccs1`, inactive: > 76.9 µM.
With `CC(=O)Cc1ccccc1OC(=O)c1ccco1` the figure was inactive: > 76.9 µM; with `COc1ccc(-c2noc(CSc3nc(N)c(-c4ccccc4)c(=O)[nH]3)n2)cc1`, inactive: > 76.9 µM; with `O=C(CN1CCOCC1)Nc1cccc(Cl)c1Cl`, inactive: > 76.9 µM.
Turning to `Nc1nc(-c2ccccc2)cc(N2CCCCC2)n1`, the Potency was inactive: > 76.9 µM.
On to `C(=C\c1ccccc1)/CSc1nnc(-c2ccccn2)n1Cc1ccco1`, for which the Potency is inactive: > 76.9 µM.
For `CCc1c(C)nc(N)n2c(SCC(=O)N3CCN(c4ccccc4)CC3)nnc12`, the Potency is inactive: > 76.9 µM.
On to `CCOC(=O)C(NC(C)=O)(N1CCOCC1)C(F)(F)F` (stereo unspecified), for which the Potency is inactive: > 76.9 µM.
Consider `CCOC(=O)c1sc(NS(=O)(=O)c2ccc(NC(C)=O)cc2)nc1C`, for which the Potency is inactive: > 76.9 µM.
With `CN(CC(=O)NCC1CCCO1)S(=O)(=O)c1cc(Cl)ccc1Cl` (stereo unspecified) the figure was inactive: > 76.9 µM; with `CCOC(=O)C1CCCN(C(=O)c2sc3nc(-c4ccccc4)cn3c2C)C1` (stereo unspecified), inactive: > 76.9 µM; with `COc1ccc(-c2csc(N(CC3CCCO3)C(=O)c3ccco3)n2)cc1` (stereo unspecified), inactive: > 76.9 µM.
With `Cc1ccc(CNC(=O)C2CC(=O)N(C3CCCCCCC3)C2)cc1` (stereo unspecified) the figure was inactive: > 76.9 µM.
For the compound `CN1CCN(C(=O)c2ccc(COc3ccc(Cl)cc3Cl)cc2)CC1`, the Potency is inactive: > 76.9 µM.
With `CCC(=O)Nc1cc(-c2nn3c(C)nnc3s2)ccc1C` the figure was inactive: > 76.9 µM; with `CCOC(=O)C(C(=O)OCC)C(=O)c1cc(OC)c(OC)c(OC)c1`, inactive: > 76.9 µM; with `CCOC(=O)CSc1nnc(-c2cccc(Cl)c2)n1CC`, inactive: > 76.9 µM.
Consider `CCCCN(C(=O)CNC(=O)c1ccco1)C(C(=O)NC1CCCCC1)c1ccc(OC)cc1OC` (stereo unspecified), for which the Potency was inactive: > 76.9 µM.
With `OC1CCN(C(c2ccc3ncccc3c2)c2nnnn2C2CCCCC2)CC1` (stereo unspecified) the figure was inactive: > 76.9 µM.
Regarding `COCCNC(=O)CSCc1nc(-c2ccc(SC)cc2)oc1C`, the Potency is inactive: > 76.9 µM.
With `O=C(COC(=O)CCc1c[nH]c(=O)[nH]1)Nc1cccc(Cl)c1` the figure was inactive: > 76.9 µM; with `CCOc1ccc(-c2nnn(CC(=O)NCc3ccc(F)cc3)n2)cc1OCC`, inactive: > 76.9 µM; with `COc1ccccc1-n1cc(C(=O)NCC(=O)N2CCN(c3ccccn3)CC2)c2ccccc2c1=O`, inactive: > 76.9 µM.
For the compound `COC(=O)C(NC=O)C(O)(Cc1ccccc1)C(F)(F)F` (stereo unspecified), the Potency was inactive: > 76.9 µM.
Turning to `COC(=O)c1ccc(-n2nnnc2SCC(=O)NCc2cccc(C(=O)O)c2)cc1`, the Potency was inactive: > 76.9 µM.
With `Cc1c(OCC(=O)OC(C)C)ccc2c3c(c(=O)oc12)CCC3` the figure was inactive: > 15.4 µM.
On to `Cc1ccc2c(CC(=O)Nc3nc(C)cs3)coc2c1`, for which the Potency was inactive: > 76.9 µM.
In the case of `c1csc(CNc2nc3ccccc3n2CCN2CCOCC2)c1`, the Potency is inactive: > 76.9 µM.
With `Cc1ccc(-n2c(C)nc3c(cnn3-c3ccc(F)cc3)c2=O)cc1` the figure was inactive: > 76.9 µM; with `CC(C)CCn1nnnc1C(c1ccccc1F)N1CCC(C(N)=O)CC1` (stereo unspecified), inactive: > 76.9 µM.
With `CN(CC(=O)Nc1ccc2c(c1)OCCO2)S(=O)(=O)c1ccc(Br)s1`, the Potency is inactive: > 76.9 µM.
Take `O=C(CCN1C(=O)C2CC=CCC2C1=O)N1CCN(c2ccccn2)CC1` (stereo unspecified): the Potency was inactive: > 76.9 µM.
For `Cc1ccc2nc3c(cc(C#N)c(=O)n3CCN3CCOCC3)c(=O)n2c1`, the Potency was inactive: > 76.9 µM.
Take `CCOC(=O)N1CCN(c2ncnc3c2oc2nc(CC(C)C)c4c(c23)CCC4)CC1`: the Potency is inactive: > 76.9 µM.
In the case of `Cc1cc(/N=C/N(C)C)on1`, the Potency was inactive: > 76.9 µM.
Take `CN(C)c1cc(N)c2ccccc2n1` (tested in a mixture with another compound): the Potency result is “inactive”.
`Cc1sc2ncnc(OCC(=O)N3CCN(S(=O)(=O)c4ccccc4)CC3)c2c1C`: the Potency is inactive: > 76.9 µM.
With `CCOCc1nnc(NC(=O)CCc2ccccc2)s1` the figure was inactive: > 76.9 µM.
`CCOc1ccc(C2C=C(c3ccccc3)Nc3nnnn32)cc1` (stereo unspecified): the Potency was active: 3.74 µM.
With `Cc1noc(C)c1CSCC(=O)N1CCN(c2ccc(F)cc2)CC1` the figure was inactive: > 76.9 µM; with `CC(C)C(NCc1c(Cl)cccc1Cl)C(=O)O` (stereo unspecified), inactive: > 76.9 µM; with `C=CCOc1ccc2ccccc2c1CNc1ncn[nH]1`, inactive: > 76.9 µM.
For `O=C1c2ccccc2C(=O)N1CCC(c1ccc(F)cc1)c1ccco1` (stereo unspecified), the Potency was inactive: > 76.9 µM.
`O=C(CN1CCOCC1)OCCCc1ccccc1`: the Potency is inactive: > 76.9 µM.
In the case of `O=C(c1ccc2c(c1)OCO2)[C@@H]1[C@@H]2C(=O)N(C3CCCCC3)C(=O)[C@@H]2C2c3ccccc3C=CN21` (stereo partly specified), the Potency was inactive: > 76.9 µM.
For `Fc1ccccc1N1CCN(c2nc3ccccc3n3nnnc23)CC1`, the Potency was active: 12.9 µM.
On to `CC(=O)Nc1ccc(S(=O)(=O)N2CCN(C(=O)N3CCOCC3)CC2)cc1`, for which the Potency is inactive: > 76.9 µM.
Regarding `COc1ccc(N(C(=O)c2ccco2)C(C(=O)NC2CCCC2)c2ccc(N(C)C)cc2)cc1` (stereo unspecified), the Potency was inactive: > 76.9 µM.
On to `NC(=O)CSc1ncc(-c2ccccc2)[nH]1`, for which the Potency was inactive: > 76.9 µM.
With `O=C1OCc2cc(NC(=O)C3CCCO3)ccc21` (stereo unspecified), the Potency is inactive: > 76.9 µM.
For the compound `C=CC(C)n1c(Br)nc2c1c(=O)[nH]c(=O)n2C` (stereo unspecified), the Potency is inactive: > 76.9 µM.
With `CC(=O)c1ccc(Oc2ncnc3sccc23)c(CN2CCOCC2)c1` the figure was inactive: > 76.9 µM; with `COc1ccc(OCC(=O)Nc2cccc3ncccc23)cc1`, inactive: > 76.9 µM; with `Cc1ccc(N(C(=O)C2CCCC2)C2C=CS(=O)(=O)C2)cc1C` (stereo unspecified), inactive: > 76.9 µM.
Consider `O=C(CCCOc1ccccc1)Nc1nnc(C2CCCO2)s1` (stereo unspecified), for which the Potency is inactive: > 76.9 µM.
In the case of `O=C(COc1ccc(S(=O)(=O)NC2CCCCC2)cc1)NCc1ccccn1`, the Potency was inactive: > 76.9 µM.
As for `OC1(Cc2ccn[nH]2)CCCCC1`, the Potency result is “inactive”.
With `CCOC(=O)N1CCN(C(=O)c2oc3ccc(S(=O)(=O)N4CCOCC4)cc3c2C)CC1`, the Potency was inactive: > 76.9 µM.
With `CC1(C)Cc2c(sc3nn[nH]c(=O)c23)CO1` the figure was inactive: > 76.9 µM; with `CCn1c(Cn2nnc(-c3ccccc3)n2)nnc1SCC(=O)Nc1cccc(C)c1C`, inactive: > 76.9 µM; with `CS(=O)(=O)c1ccc2nc(NC(=O)CN3CCN(Cc4ccccc4)CC3)sc2c1`, inactive: > 76.9 µM.
With `CN(C)S(=O)(=O)c1ccccc1C#N` the figure was inactive: > 76.9 µM; with `Cc1cccc(C)c1NC(=O)CSc1nnc(Cn2nnc(-c3ccccc3)n2)n1-c1ccccc1`, inactive: > 76.9 µM.
As for `COC(=O)c1cc(NC(=O)CN2CCOCC2)cc(C(=O)OC)c1`, the Potency was inactive: > 76.9 µM.
For `Clc1ccc(-c2nnc3sc(-c4ccc(Br)o4)nn23)c(Cl)c1`, the Potency was inactive: > 76.9 µM.
With `COC(=O)c1sc(N)c(C(=O)OC)c1COC(=O)c1c(C)noc1C` the figure was inactive: > 76.9 µM; with `O=C(NCc1ccco1)c1ccc(OCC2CCCO2)cc1` (stereo unspecified), inactive: > 76.9 µM.
As for `COC(=O)c1ccc(CSc2nc(N)cc(N)n2)cc1`, the Potency is inactive: > 76.9 µM.
In the case of `CCCCNC(=O)c1c(N)n(/N=C/c2ccccn2)c2nc3ccccc3nc12`, the Potency was inactive: > 76.9 µM.
With `Cc1cc(C(=O)O)c(=O)[nH]c1C` the figure was inactive: > 76.9 µM.
As for `CC(=O)c1ccc(NC(=O)N[C@@H](Cc2ccccc2)C(=O)O)cc1`, the Potency was inactive: > 76.9 µM.
`CCCCCCn1c(CN2CCN(C(=O)OCC)CC2)nc2c1c(=O)n(C)c(=O)n2C`: the Potency is inactive: > 76.9 µM.
As to `CCOC(=O)Cc1csc(NC(=O)c2csc(C)c2)n1`, the Potency is inactive: > 76.9 µM.
Consider `CC(=O)c1cccc(NC(=O)C2CCN(S(C)(=O)=O)CC2)c1`, for which the Potency is inactive: > 76.9 µM.
With `CCn1ncc(Br)c1C(=O)Nc1sc2c(c1C(N)=O)CCC2` the figure was inactive: > 76.9 µM; with `COCCn1c(COc2ccc(C)cc2)nc2ccccc21`, inactive: > 76.9 µM.
For the compound `CCOC(=O)/C=C1\SCC(=O)N1Cc1nnc(-c2ccccc2Br)o1`, the Potency is inactive: > 76.9 µM.
For `CCCc1cc(=O)[nH]c(SCC(=O)Nc2ccc(OC(F)F)cc2)n1`, the Potency is inactive: > 76.9 µM.
As for `Cc1c(Cc2ccccc2)c(=O)oc2c(CN(C)C)c(O)c(Cl)cc12`, the Potency was inactive: > 76.9 µM.
With `CC(C)(C)N1CC(COc2ccccc2)OC1=O` (stereo unspecified) the figure was inactive: > 76.9 µM.
On to `COC(=O)c1cc(OC)c(OC)cc1NC(=O)c1ccco1`, for which the Potency was inactive: > 76.9 µM.
For the compound `Cc1cc2nc(C3CCN(Cc4nnnn4Cc4cccs4)CC3)[nH]c2cc1C`, the Potency is inactive: > 76.9 µM.
On to `COc1ccc(C2SCC(=O)N2c2c(C)n(C)n(-c3ccccc3)c2=O)c(OC)c1` (stereo unspecified), for which the Potency was inactive: > 76.9 µM.
As for `COc1cc2c(C(=O)N3CCN(Cc4ccc5c(c4)OCO5)CC3)cn(C)c(=O)c2cc1OC`, the Potency was inactive: > 76.9 µM.
